Data as given in PubChem BioAssay AID493131 (Broad Institute, 2011).
About 3,300 (0.97%) of roughly 340,000 compounds were called active. The shares of active, inactive and inconclusive entries below differ from those in the screen.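 How the source made its calls: active means mean activation above about 17%, with every replicate also reaching it (limit read from the data, passing the limit was not always enough); inconclusive means only one of the two conditions met; inactive means the rest.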

Molecular target: Protein FosB (Mus musculus) (UniProt P13346)
Experiment: enhancers of mouse delta FosB DNA binding – biochemical, fluorescence polarization, TAMRA-CDK5 oligo, single point, primary screen (AID 493131);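 further: fluorescence polarization rise as delta FosB binds a TAMRA Cdk5 AP-1 oligo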
Details: purified delta FosB, at 25 µM, stronger effect = higher value, percent of positive-control signal above neutral wells

Sequence of UniProt P13346 (P13346 whole entry, looked up): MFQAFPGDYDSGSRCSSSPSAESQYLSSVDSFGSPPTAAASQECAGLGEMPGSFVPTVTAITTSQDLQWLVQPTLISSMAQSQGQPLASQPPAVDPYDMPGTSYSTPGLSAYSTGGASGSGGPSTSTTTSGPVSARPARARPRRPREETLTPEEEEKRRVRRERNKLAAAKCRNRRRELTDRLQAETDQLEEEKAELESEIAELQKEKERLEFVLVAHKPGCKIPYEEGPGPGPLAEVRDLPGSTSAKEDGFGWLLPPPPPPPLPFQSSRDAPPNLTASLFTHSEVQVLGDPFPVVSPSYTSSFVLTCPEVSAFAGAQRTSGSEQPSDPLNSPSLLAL

| Compound | activation |
| --- | --- |
| CC(C)CN(C(=O)CSc1nnnn1-c1ccccc1)c1c(N)n(CC(C)C)c(=O)[nH]c1=O | active: 38.4% |
| O=C(Nc1ccc(Cl)cn1)c1cc2c(s1)-c1ccccc1OC2 | inconclusive: 19.4% |
| CCN(CCO)C(=O)c1ccc2nc(Cc3cccc(Cl)c3)oc2c1 | inactive: -4.85% |
| Cc1ccc(NC(=O)Cn2nc(C(=O)Nc3ccc(C)cc3)ccc2=O)cc1 | inconclusive: 18.8% |
| N#Cc1c(N)nc(SCC(=O)C23CC4CC(CC(C4)C2)C3)c(C#N)c1-c1ccc(Cl)cc1 | inactive: 2.78% |
| COc1cccc(NC(=O)Cn2c(=O)n(CCC(=O)NCc3ccco3)c(=O)c3ccccc32)c1 | inconclusive: 24.6% |
| Cc1sc2nc(CN3CCCC3)nc(N3CCN(S(=O)(=O)c4cccc(F)c4)CC3)c2c1C | active: 43.6% |
| COc1ccc(/C=N/NC(N)=S)cc1OC(=O)c1cccc2ccccc12 | inconclusive: 21.5% |
| Cc1ccc2nc(NC(=O)c3ccc(NS(=O)(=O)c4cccs4)cc3)sc2c1 | inconclusive: 17.9% |
| CN(CC(=O)Nc1cccc(F)c1)C(=O)c1ccc(N2C(=O)c3ccccc3C2=O)cc1 | inconclusive: 16.3% |
| C/C(=N\NC(=O)CN1CCN(c2ccc(F)cc2)CC1)c1ccco1 | inactive: -0.597% |
| Oc1ccc(NC(=S)Nc2ccc(F)cc2)cc1 | inactive: 2.5% |
| COC(=O)CSc1nnc(-c2ccc(S(=O)(=O)N3CCCCC3)cc2)o1 | inconclusive: 18.6% |
| Cc1ccc(Cn2cc(/C=N/Nc3ccc([N+](=O)[O-])cn3)c3ccccc32)cc1 | inactive: -0.829% |
| COc1ccc(/C=N/NC(=O)COc2cccc3cccnc23)cc1OC | active: 30.8% |
| CCOC(=O)c1cc2sc(C)cc2n1CC(=O)Nc1ccc2c(c1)OCCO2 | inconclusive: 29.5% |
| CCc1ccc2c(COC(=O)CNS(=O)(=O)c3ccc(NC(C)=O)cc3)cc(=O)oc2c1 | inconclusive: 20% |
| CCOc1ccc(NC(=S)N2CCc3cc(OC)c(OC)cc3C2COc2ccc3c(C)cc(=O)oc3c2)cc1 (configuration not stated) | active: 50% |
| CNC(=O)/C(C#N)=C/c1ccc(-c2ccc(OC)cc2[N+](=O)[O-])o1 | inconclusive: 16.1% |
| Cn1cccc1/C=C1\SC(=O)N(CC(=O)Nc2ccc(Cl)cc2)C1=O | inconclusive: 38.7% |
| O=C(NC(=S)Nc1cccc2[nH]ncc12)c1ccccc1 | inactive: -6.46% |
| O=Nc1c(-c2c(O)[nH]c3cc(Br)ccc23)[nH]c2ccccc12 | inactive: -5.54% |
| COC(=O)[C@]1(C)N[C@H](CN(C)C(=O)c2ccc(C(C)(C)C)cc2)[C@@H]2C(=O)N(Cc3ccccc3)C(=O)[C@@H]21 | inactive: -14.1% |
| O=C(NNC1=Nc2ccccc2SC1)c1ccc(Cl)cc1 | active: 24% |
| O=C1c2ccccc2C(=O)c2c(NCCCN(CCO)CCO)cccc21 | active: 55.8% |
| CCc1ccccc1NC(=O)c1nnn(CC(=O)Nc2cccc(C)c2C)c1N | active: 42.4% |

| Compound | activation |
| --- | --- |
| CN(C)c1nc(N/N=C/c2ccccc2O)nc(Nc2ccc(F)cc2)n1 | active: 60.5% |
| COc1cc(/C=C/c2nc3ccccc3c(=O)[nH]2)cc(Br)c1O | inconclusive: 23.9% |
| COc1ccc(-n2c(SCC(=O)Nc3ccccc3)nnc2-c2ccc(NS(=O)(=O)c3ccc(C)cc3)cc2)cc1 | inconclusive: 45.2% |
| Cc1ccc(C)c(NC(=O)NNC(=O)c2cc3ccccc3cc2O)c1 | inconclusive: 19% |
| Cc1cc(C)cc(NC(=O)Cn2c(-c3ccccc3Cl)nc3ccccc32)c1 | inconclusive: 22.5% |
| Cc1ccc(C2(C)NC(=O)N(CC(=O)NCc3ccccc3Cl)C2=O)cc1 (configuration not stated) | inactive: -7.11% |
| CCOc1cc2[nH]c(=S)n(Cc3ccc(C(=O)N4CCN(C)CC4)cc3)c(=O)c2cc1OCC | inconclusive: 16.4% |
| O=C(COC(=O)c1cc(Cl)ccc1O)Nc1ccc2c(c1)OCCO2 | active: 29.7% |
| CCC(=O)c1cn(CC(=O)Nc2ccc(C)cc2C)c2ccccc12 | inconclusive: 19% |
| Cc1cccc(NC(=O)c2ccc(OCC(=O)NCc3ccccc3)cc2)c1C | inconclusive: 16.4% |
| CCOc1ccc2nc(N/C(N)=N/C(=S)Nc3cccc(C)c3)nc(C)c2c1 | inconclusive: 16.6% |
| COc1ccc(C2c3ccc(O)cc3Oc3ncn4nc(-c5ccncc5)nc4c32)cc1OC (configuration not stated) | inconclusive: 20.9% |
| COCC1CCN(Cc2cn[nH]c2-c2ccc(OC)c(F)c2)C1 (configuration not stated) | inactive: -7.6% |
| Cc1ccc(N2CC(=O)Nc3c(oc4nc(-c5ccccc5)cc(C)c34)C2=O)cc1 | active: 23.9% |
| c1ccc2c(C[C@@H]3CNCCN3CCCCC3CCCCC3)cccc2c1 | inconclusive: 20.2% |
| C#CCOCCOCCOCCNc1nc(N2CCN(C(=O)[C@H]([C@@H](C)CC)n3cc([C@@H](N)Cc4ccc(O)cc4)nn3)CC2)nc(N2CCN(C(=O)[C@H](Cc3ccc(O)cc3)n3cc([C@@H](N)CC(C)C)nn3)CC2)n1 | inconclusive: 18.7% |
| O=c1[nH]c(SCc2nc3c(cnn3-c3ccccc3)c(=O)[nH]2)nc2ccccc12 | active: 43.7% |
| Cc1ccc(C(=O)Nc2cccc(C(F)(F)F)c2)cc1NC(=O)c1ccno1 | inactive: -6.25% |
| O=C(Cn1cnc2ccccc2c1=O)Nc1nc2ccccc2s1 | inconclusive: 22% |
| Cc1cc(NCc2ccc(F)cc2Cl)n2nnnc2n1 | inconclusive: 16.9% |
| CC1=C(C(=O)c2ccccc2)C(c2cn(-c3ccccc3)nc2-c2ccc(Cl)cc2)NC(=S)N1 (configuration not stated) | inconclusive: 31.4% |
| COc1ccc2nc(C)cc(NCc3cccc(C(F)(F)F)c3)c2c1 | inconclusive: 17% |
| CCSc1nc(N2CCCCC2)c2c(c1C#N)CCCC2 | inactive: -0.788% |
| CCCCN(C(=O)c1ccc(N2C(=O)c3ccccc3C2=O)cc1)c1c(N)n(CC(C)C)c(=O)[nH]c1=O | inconclusive: 17.6% |
| O=[N+]([O-])c1ccc(NCc2ccc(Cl)cc2)nc1 | inactive: -4.97% |
| CC(=O)c1ccc(NC(=O)c2ccc(-n3cnnn3)cc2)cc1 | active: 24% |
